SMILES strings stand for the structures. Some of the results follow. Repeats are few or missing, and single values can be far off.
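Note: cells treated in 1,536-well plates, then fixed and DAPI-stained, with nuclei counted from automated high-throughput microscope images.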

This assay relates to WM3619. As to the kind of experiment: cell count relative to DMSO control; melanoma cells; higher = more viable cells. Particulars: library dose: standard library concentration; 72 h.
With `Cn1cnc2c(F)c(Nc3ccc(Br)cc3Cl)c(C(=O)NOCCO)cc21` [selumetinib] + COc1cc2c(Oc3ccc4[nH]c(C)cc4c3F)ncnc2cc1OCCCN1CCCC1 [cediranib] (first compound 0.075 µM, partner dose 2 µM), the cell count was found to be 108%.
Consider `COc1cc([C@@H]2c3cc4c(cc3[C@@H](O[C@@H]3O[C@@H]5CO[C@@H](C)O[C@H]5[C@H](O)[C@H]3O)[C@H]3COC(=O)[C@H]23)OCO4)cc(OC)c1O` [etoposide] + CN(C)S(=O)(=O)c1ccc2c(c1)/C(=C/c1cc3c([nH]1)CCCC3)C(=O)N2 [SU6656] (first compound 0.1 µM, partner dose 2 µM), for which the cell count turned out to be 68.3%.
The figure for `COc1cc([C@@H]2c3cc4c(cc3[C@@H](O[C@@H]3O[C@@H]5CO[C@@H](C)O[C@H]5[C@H](O)[C@H]3O)[C@H]3COC(=O)[C@H]23)OCO4)cc(OC)c1O` [etoposide] + CCCS(=O)(=O)Nc1ccc(F)c(C(=O)c2c[nH]c3ncc(Cl)cc23)c1F [PLX4720] (first compound 0.1 µM, partner dose 0.4 µM) is 65.1%; for `Cn1cnc2c(F)c(Nc3ccc(Br)cc3Cl)c(C(=O)NOCCO)cc21` [selumetinib] + CN(NC(=O)CC(=O)NN(C)C(=S)c1ccccc1)C(=S)c1ccccc1 [STA4783] (first compound 0.075 µM, partner dose 0.03 µM) it is 2.99%.
The figure for `CCN(CC)CCNC(=O)c1c(C)[nH]c(/C=C2\C(=O)Nc3ccc(F)cc32)c1C` [sunitinib] + O=C(CCCCCCC(=O)Nc1ccccc1)NO [vorinostat] (first compound 2 µM, partner dose 0.4 µM) is 62.4%.
To `COc1cc([C@@H]2c3cc4c(cc3[C@@H](O[C@@H]3O[C@@H]5CO[C@@H](C)O[C@H]5[C@H](O)[C@H]3O)[C@H]3COC(=O)[C@H]23)OCO4)cc(OC)c1O` [etoposide] + C[C@@H]1CCN(C(=O)CC#N)C[C@@H]1N(C)c1ncnc2[nH]ccc12 [CP690550] (first compound 0.1 µM, partner dose 5 µM) belongs 82%; to `CCN(CC)CCNC(=O)c1c(C)[nH]c(/C=C2\C(=O)Nc3ccc(F)cc32)c1C` [sunitinib] + COc1cc(Nc2ncc(F)c(Nc3ccc4c(n3)NC(=O)C(C)(C)O4)n2)cc(OC)c1OC [Tamatinib] (first compound 2 µM, partner dose 2 µM), 53%.
`COc1cc([C@@H]2c3cc4c(cc3[C@@H](O[C@@H]3O[C@@H]5CO[C@@H](C)O[C@H]5[C@H](O)[C@H]3O)[C@H]3COC(=O)[C@H]23)OCO4)cc(OC)c1O` [etoposide] + OCCn1cc(-c2cnc3nnn(Cc4ccc5ncccc5c4)c3n2)cn1 [PF04217903] (first compound 0.1 µM, partner dose 5 µM) had a cell count of 68.4%.
`C[C@]1(O)C[C@@H](c2nc(-c3ccc4ccc(-c5ccccc5)nc4c3)c3c(N)nccn32)C1` + CN(C)S(=O)(=O)c1ccc2c(c1)/C(=C/c1cc3c([nH]1)CCCC3)C(=O)N2 [SU6656] (first compound 2 µM, partner dose 2 µM) registered a cell count of 68.5%.
In turn, `C[C@]1(O)C[C@@H](c2nc(-c3ccc4ccc(-c5ccccc5)nc4c3)c3c(N)nccn32)C1` + COc1cc2c(Oc3ccc4[nH]c(C)cc4c3F)ncnc2cc1OCCCN1CCCC1 [cediranib] (first compound 2 µM, partner dose 2 µM) displayed a cell count of 114%.
For `CCN(CC)CCNC(=O)c1c(C)[nH]c(/C=C2\C(=O)Nc3ccc(F)cc32)c1C` [sunitinib] + CO[C@@H]1[C@H](N(C)C(=O)c2ccccc2)C[C@H]2O[C@]1(C)n1c3ccccc3c3c4c(c5c6ccccc6n2c5c31)C(=O)NC4 [Midostaurin] (first compound 2 µM, partner dose 0.4 µM), the cell count worked out at 52.7%.
The figure for `COc1cc([C@@H]2c3cc4c(cc3[C@@H](O[C@@H]3O[C@@H]5CO[C@@H](C)O[C@H]5[C@H](O)[C@H]3O)[C@H]3COC(=O)[C@H]23)OCO4)cc(OC)c1O` [etoposide] + CC(C)(C)c1cnc(CSc2cnc(NC(=O)C3CCNCC3)s2)o1 [SNS-032] (first compound 0.1 µM, partner dose 0.05 µM) is 64.2%.
On to `C[C@]1(O)C[C@@H](c2nc(-c3ccc4ccc(-c5ccccc5)nc4c3)c3c(N)nccn32)C1` + C=CCn1c(=O)c2cnc(Nc3ccc(N4CCN(C)CC4)cc3)nc2n1-c1cccc(C(C)(C)O)n1 [MK1775] (first compound 2 µM, partner dose 0.1 µM), for which the cell count was determined as 31.9%.
To `COc1cc([C@@H]2c3cc4c(cc3[C@@H](O[C@@H]3O[C@@H]5CO[C@@H](C)O[C@H]5[C@H](O)[C@H]3O)[C@H]3COC(=O)[C@H]23)OCO4)cc(OC)c1O` [etoposide] + O=C(CCCCCCC(=O)Nc1ccccc1)NO [vorinostat] (first compound 0.1 µM, partner dose 0.4 µM) belongs 63.9%; to `COc1cc([C@@H]2c3cc4c(cc3[C@@H](O[C@@H]3O[C@@H]5CO[C@@H](C)O[C@H]5[C@H](O)[C@H]3O)[C@H]3COC(=O)[C@H]23)OCO4)cc(OC)c1O` [etoposide] + O=C(O)c1ccc(-c2c[nH]c3ncc(-c4ccccc4)cc23)cc1C1CCCC1 [GSK650394] (first compound 0.1 µM, partner dose 0.8 µM), 66.1%.
On to `Cn1cnc2c(F)c(Nc3ccc(Br)cc3Cl)c(C(=O)NOCCO)cc21` [selumetinib] + Cc1ccc(NC(=O)c2cccc(N(C)C)c2)cc1NC(=O)c1ccc(O)cc1 [ZM336372] (first compound 0.075 µM, partner dose 10 µM), for which the cell count stood at 101%.
The figure for `C[C@]1(O)C[C@@H](c2nc(-c3ccc4ccc(-c5ccccc5)nc4c3)c3c(N)nccn32)C1` + OCCn1cc(-c2cnc3nnn(Cc4ccc5ncccc5c4)c3n2)cn1 [PF04217903] (first compound 2 µM, partner dose 5 µM) is 91.4%; for `CCN(CC)CCNC(=O)c1c(C)[nH]c(/C=C2\C(=O)Nc3ccc(F)cc32)c1C` [sunitinib] + CN(C)S(=O)(=O)c1ccc2c(c1)/C(=C/c1cc3c([nH]1)CCCC3)C(=O)N2 [SU6656] (first compound 2 µM, partner dose 2 µM) it is 72.7%.
`CCN(CC)CCNC(=O)c1c(C)[nH]c(/C=C2\C(=O)Nc3ccc(F)cc32)c1C` [sunitinib] + CC(C)(C)c1cnc(CSc2cnc(NC(=O)C3CCNCC3)s2)o1 [SNS-032] (first compound 2 µM, partner dose 0.05 µM): the cell count stood at 74.6%.
As to `Cn1cnc2c(F)c(Nc3ccc(Br)cc3Cl)c(C(=O)NOCCO)cc21` [selumetinib] + O=C(Nc1cccc(Cl)c1)Nc1ncc(CCNc2ncnc3ccsc23)s1 [SNS314] (first compound 0.075 µM, partner dose 0.004 µM), the cell count is 71.9%.
Take `COc1cc([C@@H]2c3cc4c(cc3[C@@H](O[C@@H]3O[C@@H]5CO[C@@H](C)O[C@H]5[C@H](O)[C@H]3O)[C@H]3COC(=O)[C@H]23)OCO4)cc(OC)c1O` [etoposide] + CC1(C)NC(=O)N(c2ccc([N+](=O)[O-])c(C(F)(F)F)c2)C1=O [nilutamide] (first compound 0.1 µM, partner dose 5 µM): the cell count amounted to 59.1%.

Source of the values: the supplement of paper PMC4604168 (melanoma cell lines).
